# Results: PubChem BioAssay AID686978 (National Center for Advancing Translational Sciences (NCATS), 2013)
# Hit rate of the full screen: of about 420,000 compounds, about 64,000 (15%) were called active. The inconclusive results got no clear call from the source; some entries with a clear call stand among them for comparison. Calls come from the whole dose curve; as a rule, active = well fitted inhibition curve with a large enough effect; inconclusive = small, poorly fitted or top-dose-only effect; inactive = flat fitted curve, though single readings scatter. Potencies of inconclusive entries are left out as doubtful fits.
# Test: qHTS for Inhibitors of human tyrosyl-DNA phosphodiesterase 1 (TDP1): qHTS in cells in absence of CPT; note: nearly all actives have a fitted effect of over 55% in size
# Details: DT40 Tdp1-/- hTDP1 cells, no CPT, ATP luminescence, 48 h; activity change, negative = growth inhibition: at 46.2 µM (top of the series)
# Outline: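 Chicken DT40 Tdp1-/- cells complemented with human TDP1, screened without camptothecin (DMSO vehicle only), 400 cells/well. Compounds pin-transferred, cells incubated at 37 °C for at least 48 hr. Growth read as ATP-dependent luminescence (CellTiter-Glo, 30 min at RT).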
# % is set by controls: 0 for no effect and ±100 for the full control effect; potency is the fitted concentration of half-maximal effect; tags give direction and shape of the fitted curve.
SMILES,Potency,"activity change, negative = growth inhibition"
Nc1nnc(SCC(=O)Nc2cccc(S(=O)(=O)N3CCCCC3)c2)s1,"inconclusive [inhibitor, partial curve]",–
Cc1nc2ccc(S(=O)(=O)N(CC(=O)Nc3cccc(Cl)c3)Cc3ccccc3)cc2s1,active: 16.4 µM,–
Cc1csc2nc(SCC(=O)N3CCN(c4ccccc4)CC3)[nH]c(=O)c12,"inconclusive [inhibitor, partial curve, poor fit]",–
COc1ccc(OCC(=O)N(Cc2ccco2)C2CCS(=O)(=O)C2)cc1 (stereo not given),inactive,–
COc1ccc(NC(=O)/C=C/c2ccccc2[N+](=O)[O-])c(OC)c1,"inconclusive [inhibitor, partial curve, poor fit]",–
Cc1ccsc1/C=N/NC(=O)c1cccnc1,inactive,–
Cc1cccc(CNC(=O)Nc2nnc([C@H]3C[C@H](O)[C@@H](CO)O3)s2)c1,inactive,–
O=C(Cc1ccc(-n2cccc2)cc1)NC1CCCCC1,–,inconclusive: -30.4% [inhibitor]
CCN(CC)c1cc(C)c(C#N)c2nc3ccccc3n12,"inconclusive [inhibitor, single point]",–
O=C(Nc1oc2ccccc2c(=O)c1-c1ccccc1)c1ccco1,inactive,–
COc1ccccc1CNC(=O)CCC(=O)n1ncc2cc(C)ccc21,inactive,–
Cc1cc(NC(=O)CCC(=O)N(c2cccc(F)c2)C(C(=O)NC2CCCC2)c2ccc(C)o2)no1 (stereo not given),"inconclusive [inhibitor, partial curve]",–
Cc1ccc(OCCN2CCN(c3ncnc4sc(C)c(C)c34)CC2)cc1,active: 3.66 µM,–
CCOc1ccc(NC(=O)CCn2c(=O)c3cccn3c3cccnc32)cc1,"inconclusive [inhibitor, single point]",–
CC1CCN(C(=O)c2[nH]cnc2C(=O)Nc2ccon2)CC1,"inconclusive [inhibitor, single point]",–
CCCCN1C(=O)C(CC(=O)NCCCN(C)C)CC(C(=O)N2CCOCC2)=C1C (stereo not given),inactive,–
CCSc1nc(C2CC2)cc(-c2cccs2)c1C#N,"inconclusive [inhibitor, partial curve, poor fit]",–
CC(NS(=O)(=O)c1cccc(Cl)c1)C(=O)N(C)C1CCN(C)CC1 (stereo not given),inactive,–
c1ccc(-c2nc(SCC3CCCCO3)n[nH]2)cc1 (stereo not given),"inconclusive [inhibitor, single point]",–
CCC(C)N1CCN(S(=O)(=O)c2ccc(NC(C)=O)cc2)CC1 (stereo not given),–,inconclusive: -32.6% [inhibitor]
COc1cccc2sc3ccc(NCCC4CCCN4C)cc3c(=O)c12 (stereo not given),"inconclusive [inhibitor, single point]",–
CCCS(=O)(=O)NC(=O)C1(C)CCN(C(=O)c2ccc(F)cc2Cl)C1 (stereo not given),inactive,–
CCOc1ccc(Cn2nnc(C(=O)Nc3cccc(SC)c3)c2N)cc1,"inconclusive [inhibitor, single point]",–
COc1ccccc1CNC(=O)CCc1nnc2ccc(NCCCN3CCCC3=O)nn12,inactive,–

SMILES,Potency,"activity change, negative = growth inhibition"
Cc1cc2nn(-c3ccccc3)nc2cc1NC(=O)COc1ccc(Cl)cc1,"inconclusive [inhibitor, single point]",–
Cc1cc(=O)nc2c3ccccc3n(CC(=O)NC(C)c3ccc4c(c3)OCCO4)n12 (stereo not given),inactive,–
CCCCc1ccc(NC(=S)NCCN2CCOCC2)cc1,inactive,–
CCc1ccc(NC(=O)COn2nnc3ccc(S(=O)(=O)N(C)C)cc32)cc1,"inconclusive [inhibitor, single point]",–
CCN(CC(=O)NCc1cccs1)C(=O)c1cc(S(=O)(=O)N2CCCCC2)ccc1Cl,"inconclusive [inhibitor, single point]",–
CC1CCC(NC(=O)CCc2cn(Cc3ccccc3Cl)c3ccccc23)CC1 (stereo not given),"inconclusive [inhibitor, single point]",–
CC(C)Cc1nnc(NC(=O)c2ccc(N3CCCC3=O)cc2)s1,"inconclusive [inhibitor, single point]",–
CN(C)c1ccc(/C=C/c2ccc3cc(N)ccc3n2)cc1,active: 3.16 µM,–
CN(C)C(=O)N1CCC(C(=O)NCc2ccc3c(c2)OCO3)CC1,inactive,–
Nc1nnc(SCC(=O)NC2CCCCCC2)s1,inactive,–
CC(C)(CSc1ccccn1)NS(=O)(=O)c1ccccc1,"inconclusive [inhibitor, single point]",–
CCCN(CCC)S(=O)(=O)c1ccc(C(=O)Nc2ccc(S(=O)(=O)Nc3nnc(CC)s3)cc2)cc1,"inconclusive [inhibitor, partial curve, poor fit]",–
COc1ccccc1N1CCN(C(=O)c2cc(-c3ccc(C)cc3)on2)CC1,"inconclusive [inhibitor, single point]",–
Cc1ccc(NC(=O)C2CCN(S(=O)(=O)c3ccc4[nH]c(=O)oc4c3)CC2)cc1F,"inconclusive [inhibitor, single point]",–
O=C(COc1ccc(Cl)cc1Cl)NC(=O)N1CCOCC1,inactive,–
COCCCNCCOCCOc1ccc(C)cc1Br,"inconclusive [inhibitor, single point]",–
CC(=O)N/C(=C\c1ccccc1)C(=O)OCc1cccc(S(=O)(=O)N(C)C)c1,"inconclusive [inhibitor, partial curve]",–
O=C(CNC(=O)c1ccco1)NC1CCCCCC1,"inconclusive [inhibitor, partial curve, poor fit]",–
O=C(NCC1CCC2(CCN(Cc3cccc(-c4ccco4)c3)CC2)O1)c1ccccc1 (stereo not given),inactive,–
COc1cccc(CNC(=O)COC(=O)CCCNC(=O)c2ccc(Cl)cc2)c1,inactive,–
COc1ccc(N(CC(=O)NCc2cccs2)S(=O)(=O)c2ccc(C(C)=O)cc2)cc1,"inconclusive [inhibitor, single point]",–
CN1CCN(c2ncc3nc(-c4ccc(F)cc4)c(=O)n(C4CC4)c3n2)CC1,"inconclusive [inhibitor, single point]",–
Cc1ccc(C)c(Cn2c3ccccc3c3cnn(CC(=O)NC4CCC(C)CC4)c(=O)c32)c1 (stereo not given),active: 13 µM,–
COc1ccc(NC(=O)CSC2=Nc3ccccc3C3=NC(CCC(=O)NCc4cccs4)C(=O)N23)cc1 (stereo not given),"inconclusive [inhibitor, single point]",–

SMILES,Potency,"activity change, negative = growth inhibition"
O=C(NCCc1ccccc1)C1CCN(c2ncnc3c2nc2n3CCCCC2)CC1,inactive,–
O=S(=O)(c1ccc(N2CCCCCC2)nc1)N1CCCC1,"inconclusive [inhibitor, single point]",–
COC(=O)/C(=N\OCc1ccc(C#N)cc1)c1c(C)nn(C)c1C,inactive,–
O=C(Nc1cccc(S(=O)(=O)Nc2ccc(Cl)cc2)c1)c1cc2c(s1)CCCC2,"inconclusive [inhibitor, single point]",–
CCOC(=O)C1CCN(c2c(NCc3ccc(C(=O)Nc4ccc(C)cc4)cc3)c(=O)c2=O)CC1,inactive,–
CSc1cc(-c2ccc(Cl)cc2)c(C(=O)N2CCCC2)s1,"inconclusive [inhibitor, partial curve, poor fit]",–
COC(=O)[C@@H]1[C@@H](C)N(Cc2ccccc2)C(=O)N[C@H]1c1ccccc1,inactive,–
COC(=O)CN1C(=O)CSc2ccc(S(=O)(=O)Nc3cccc(Br)c3)cc21,"inconclusive [inhibitor, single point]",–
COc1cc(/C=N/NC(=O)COc2ccc(C)cc2)ccc1OC(=O)c1cccs1,active: 25.9 µM,–
Cc1cccc(NS(=O)(=O)c2cccc(C(=O)NCc3ccccc3CN3CCOCC3)c2)c1,"inconclusive [inhibitor, single point]",–
Cc1c(C(=O)NCc2ccc(Cl)c(Cl)c2)sc(=O)n1Cc1ccccc1F,"inconclusive [inhibitor, single point]",–
O=C(Nc1cccnc1)C1CCC(CNS(=O)(=O)c2cccc3nsnc23)CC1 (stereo not given),–,inconclusive: -36.3% [inhibitor]
N/C(=N\OC(=O)c1ccc2c(c1)OCO2)c1ccc(Br)cc1,inactive,–
COC(=O)[C@@]12C[C@@H](CC(=O)N3CCCCC3)C(=O)N(Cc3cccc4ccccc34)C1=CCC(C)(C)C2,"inconclusive [inhibitor, single point]",–
CCC1(c2ccccc2)NC(=O)N(CC(=O)Nc2cc(S(=O)(=O)N3CCCCC3)ccc2OC(C)C)C1=O (stereo not given),"inconclusive [inhibitor, single point]",–
FC(F)(F)c1ccccc1Cc1c(-c2cccc(Br)c2)nc2ccc(Br)cn12,"inconclusive [inhibitor, single point]",–
CCCCOC(=O)/C(C#N)=C/c1ccc(-c2cccc(C(F)(F)F)c2)o1,"inconclusive [inhibitor, single point]",–
O=C(Nc1ccc2c(c1)OCO2)c1cc(C2CCCCN2C(=O)OCCF)on1 (stereo not given),"inconclusive [inhibitor, single point]",–
Cc1ccccc1CNC(=O)C1CCN(S(=O)(=O)Cc2ccccc2)CC1,inactive,–
CC(C)(CO)Nc1nc(Nc2ccccc2)nc(Nc2ccccc2)n1,"inconclusive [inhibitor, single point]",–
CNS(=O)(=O)c1cccc(C(=O)NNC(=O)c2ccc(COc3ccccc3)cc2)c1,"inconclusive [inhibitor, single point]",–
COc1ccc(-c2csc(C(C)(O)c3ccncc3)n2)cc1OC (stereo not given),"inconclusive [inhibitor, single point]",–
